# Data: PubChem BioAssay (NCATS)
# This is one part of the list. The main result of the screen is listed elsewhere. These columns were measured beside it and carry no call. For some assays here: The list favours compounds with an active or inconclusive main result. The note in brackets gives the kind of curve behind each potency; many fits are weak.
# Assays:
# [1] = qHTS drug screen for cell cycle checkpoint inhibitors in PARPi-resistant BRCA-mutant ovarian cancer cell lines. (AID 1963452); conditions: PEO1/OlaR viability, CellTiter-Glo luminescence, 96 h
# Procedure, shortened: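 PEO1, PEO4 and PEO1/OlaR ovarian cancer cells, 600 per well, exposed 96 h at 37C to a dilution series. Viability read by CellTiter-Glo luminescence, normalized to DMSO and empty wells; activity summarized as Z-AUC.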
# [2] = qHTS for identification of novel therapeutic agents for treatment of microphthalmiaassociated transcription factor (MiT) renal cell carcinoma (RCC) (AID 1963991); conditions: TFE3-RCC viability, CellTiter-Glo, 48 h
# Procedure, shortened: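 Three TFE3-fusion RCC lines (UOK109, UOK124, UOK145), 500 cells/well in complete medium, were treated with MIPE 4.0 compounds for 48 hours at 37 C. Viability was by CellTiter-Glo luminescence, normalized to DMSO (100%) and empty wells (0%); curves fitted over 11 concentrations.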
# [3] = measured here: PEO1 parental viability
# [4] = measured here: UOK124 cell viability
# [5] = measured here: UOK145 cell viability
# Tags describe the fitted curve by direction and shape.
SMILES,"AC50 [1, 3]",AC50 ([1]; measured here: PEO4 viability),"AC50 [2, 4]","AC50 [2, 5]"
CC(C)[C@H](C(=O)Nc1ccc(C(=O)NO)cc1)c1ccccc1,"1740 nM [falling, full curve]","3470 nM [falling, partial curve]","2960 nM [falling, full curve]","3720 nM [falling, full curve]"
CC[C@@]1(O)C(=O)OCc2c1cc1n(c2=O)Cc2cc3cc(O)ccc3nc2-1,"7.8 nM [falling, full curve]","54.9 nM [falling, full curve]","264 nM [falling, full curve]","264 nM [falling, full curve]"
COc1ncc(-c2ccc3nccc(-c4ccnnc4)c3c2)cc1NS(=O)(=O)c1ccc(F)cc1F,"87.1 nM [falling, full curve]","97.7 nM [falling, full curve]","29.6 nM [falling, full curve]","8.33 nM [falling, full curve]"
CC(C)n1nc(-c2ccc3oc(N)nc3c2)c2c(N)ncnc21,"616 nM [falling, full curve]","138 nM [falling, full curve]","132 nM [falling, full curve]","4.18 nM [falling, full curve]"
O=C1NC(=O)C(c2cnc3ccccn23)=C1c1cn2c3c(cccc13)CN(C(=O)N1CCOCC1)CC2,"436 nM [falling, full curve]","347 nM [falling, full curve, poor fit]","93.5 nM [falling, partial curve]","1320 nM [falling, partial curve]"
